In the supplement of paper PMC7125110:
± gives the standard error. This sample is rich in variants without activity.

B1: glmS ribozyme (parent)
chain: AUAAAAGCGCCAGAACUACAGAAAUGUAGUUGACGAGGAGGAGGUUUAUCGAAUUUUCGGCGGAUGCCUCCAAA

Tests used:
Conditions in all cases: with glucosamine-6-phosphate
[1] = variants of: B1; experiment: self-cleavage kobs at 40 uM GlcN6P; higher = faster cleavage; RNA array
Method in brief: (§1)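 Glucosamine-6-phosphate (40 μM to 10 mM) in HEPES/KCl/Mg(OAc)2 buffer was flowed over sequenced MiSeq chips, and tiles were imaged over ~14 h. Barcoded ribozyme variants there had been transcribed in situ by E. coli RNA polymerase and were tracked through a hybridised Cy3 probe at 37 °C. One- or two-exponential decay fits to per-tile medians, normalised to baseline and to non-cleaving reference variants, gave kobs. kcat and KM came from weighted Michaelis–Menten fits across concentrations.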

[2] = variants of: B1; experiment: self-cleavage kobs at 640 uM GlcN6P; higher = faster cleavage; RNA array
Method in brief: as §1

[3] = variants of: B1; experiment: self-cleavage kobs at 10000 uM GlcN6P; higher = faster cleavage; RNA array
Method in brief: as §1

[4] = variants of: B1; experiment: self-cleavage kobs at 160 uM GlcN6P; higher = faster cleavage; RNA array
Method in brief: as §1

[5] = variants of: B1; experiment: self-cleavage kobs at 2500 uM GlcN6P; higher = faster cleavage; RNA array
Method in brief: as §1

Row | Variant | self-cleavage kobs at 40 uM GlcN6P [1] | self-cleavage kobs at 640 uM GlcN6P [2] | self-cleavage kobs at 10000 uM GlcN6P [3] | self-cleavage kobs at 160 uM GlcN6P [4] | self-cleavage kobs at 2500 uM GlcN6P [5]
1 | C34U C58G U65G C70A | 0.000236 ± 8.2e-05 s⁻¹ | 0.000187 ± 7.4e-05 s⁻¹ | 0.000376 ± 0.00015 s⁻¹ | – | –
2 | A33U C61U C70G | < 1e-05 s⁻¹ | – | – | – | –
3 | C34U G59A | < 1e-05 s⁻¹ | – | – | – | –
4 | C34U G38U C68A | < 1e-05 s⁻¹ | – | – | < 1e-05 s⁻¹ | < 1e-05 s⁻¹
5 | C34A G51A | < 1e-05 s⁻¹ | – | – | < 1e-05 s⁻¹ | < 1e-05 s⁻¹
6 | A33U G41C | < 1e-05 s⁻¹ | – | – | < 1e-05 s⁻¹ | –
7 | C34A U65C | < 1e-05 s⁻¹ | < 1e-05 s⁻¹ | < 1e-05 s⁻¹ | < 1e-05 s⁻¹ | < 1e-05 s⁻¹
8 | C34U G41A A48G G62C | < 1e-05 s⁻¹ | – | < 1e-05 s⁻¹ | – | –
9 | C34G A42C | < 1e-05 s⁻¹ | < 1e-05 s⁻¹ | < 1e-05 s⁻¹ | – | < 1e-05 s⁻¹
10 | C34G U49C C68U C70U | < 1e-05 s⁻¹ | – | – | – | –
11 | C34G | < 1e-05 s⁻¹ | < 1e-05 s⁻¹ | – | < 1e-05 s⁻¹ | –
12 | C34U | < 1e-05 s⁻¹ | < 1e-05 s⁻¹ | < 1e-05 s⁻¹ | < 1e-05 s⁻¹ | < 1e-05 s⁻¹
13 | C34G G41U | < 1e-05 s⁻¹ | < 1e-05 s⁻¹ | < 1e-05 s⁻¹ | < 1e-05 s⁻¹ | < 1e-05 s⁻¹
14 | A33U U56C U57C G60U | < 1e-05 s⁻¹ | – | – | – | < 1e-05 s⁻¹
15 | C34U U45A | < 1e-05 s⁻¹ | – | – | – | –
16 | C34A G41U | < 1e-05 s⁻¹ | < 1e-05 s⁻¹ | < 1e-05 s⁻¹ | < 1e-05 s⁻¹ | < 1e-05 s⁻¹
17 | C34A C61G | < 1e-05 s⁻¹ | < 1e-05 s⁻¹ | < 1e-05 s⁻¹ | < 1e-05 s⁻¹ | < 1e-05 s⁻¹
18 | C34G C50A | < 1e-05 s⁻¹ | < 1e-05 s⁻¹ | – | – | –
19 | C34G A48C | < 1e-05 s⁻¹ | < 1e-05 s⁻¹ | < 1e-05 s⁻¹ | < 1e-05 s⁻¹ | < 1e-05 s⁻¹
20 | A33U C61G | < 1e-05 s⁻¹ | – | < 1e-05 s⁻¹ | – | –
21 | C34U G44C G63A | < 1e-05 s⁻¹ | – | – | < 1e-05 s⁻¹ | –
22 | C34A G40U G66A | < 1e-05 s⁻¹ | – | < 1e-05 s⁻¹ | < 1e-05 s⁻¹ | –

Row | Variant | self-cleavage kobs at 40 uM GlcN6P [1] | self-cleavage kobs at 640 uM GlcN6P [2] | self-cleavage kobs at 10000 uM GlcN6P [3] | self-cleavage kobs at 160 uM GlcN6P [4] | self-cleavage kobs at 2500 uM GlcN6P [5]
23 | C34A A39G A48U C68A | < 1e-05 s⁻¹ | – | < 1e-05 s⁻¹ | < 1e-05 s⁻¹ | < 1e-05 s⁻¹
24 | C34G G60A C70U | < 1e-05 s⁻¹ | – | < 1e-05 s⁻¹ | < 1e-05 s⁻¹ | –
25 | C34G G62U | < 1e-05 s⁻¹ | – | < 1e-05 s⁻¹ | – | < 1e-05 s⁻¹
26 | C34G A36U | < 1e-05 s⁻¹ | < 1e-05 s⁻¹ | < 1e-05 s⁻¹ | – | –
27 | C34A G43C | < 1e-05 s⁻¹ | < 1e-05 s⁻¹ | < 1e-05 s⁻¹ | < 1e-05 s⁻¹ | –
28 | C34A G43A | < 1e-05 s⁻¹ | – | – | – | < 1e-05 s⁻¹
29 | C34G G51A | < 1e-05 s⁻¹ | < 1e-05 s⁻¹ | < 1e-05 s⁻¹ | < 1e-05 s⁻¹ | < 1e-05 s⁻¹
30 | C34A A64U | < 1e-05 s⁻¹ | < 1e-05 s⁻¹ | < 1e-05 s⁻¹ | < 1e-05 s⁻¹ | –
31 | A33U U46G U55A C58U C67A | < 1e-05 s⁻¹ | – | – | – | –
32 | C34A G38U U69A | < 1e-05 s⁻¹ | – | – | – | –
33 | C34U G44U | < 1e-05 s⁻¹ | – | < 1e-05 s⁻¹ | < 1e-05 s⁻¹ | < 1e-05 s⁻¹
34 | C34U G44A | < 1e-05 s⁻¹ | < 1e-05 s⁻¹ | < 1e-05 s⁻¹ | < 1e-05 s⁻¹ | < 1e-05 s⁻¹
35 | C34U G44C | < 1e-05 s⁻¹ | – | < 1e-05 s⁻¹ | – | < 1e-05 s⁻¹
36 | C34U A64G | < 1e-05 s⁻¹ | < 1e-05 s⁻¹ | < 1e-05 s⁻¹ | – | –
37 | C34A A36G | < 1e-05 s⁻¹ | < 1e-05 s⁻¹ | < 1e-05 s⁻¹ | < 1e-05 s⁻¹ | < 1e-05 s⁻¹
38 | A33U G40U C61U | < 1e-05 s⁻¹ | – | – | – | –
39 | C34G G51A G62A | < 1e-05 s⁻¹ | – | – | – | –
40 | C34G A64C | < 1e-05 s⁻¹ | < 1e-05 s⁻¹ | < 1e-05 s⁻¹ | – | < 1e-05 s⁻¹
41 | C34U C61A C67U | 0.00014 ± 3.8e-05 s⁻¹ | 0.000388 ± 0.00011 s⁻¹ | 0.000236 ± 6.1e-05 s⁻¹ | – | 5.38e-05 ± 2.6e-05 s⁻¹
42 | C34U G41U A48U | < 1e-05 s⁻¹ | < 1e-05 s⁻¹ | < 1e-05 s⁻¹ | < 1e-05 s⁻¹ | –
43 | C34G U46G | < 1e-05 s⁻¹ | < 1e-05 s⁻¹ | < 1e-05 s⁻¹ | < 1e-05 s⁻¹ | –
